Assay [1] deals with T1, LSM8, yeast two-hybrid fusion (Arabidopsis) (UniProt Q8VYI0).
T1 sequence: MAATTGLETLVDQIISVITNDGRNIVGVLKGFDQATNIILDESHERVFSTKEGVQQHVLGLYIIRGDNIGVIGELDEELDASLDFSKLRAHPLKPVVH
Put plainly: two-hybrid; GAL4 system (pGBT-9, pGAD424) in S. cerevisiae AH109; growth of serial dilutions on SD-LWH; three colonies for each interaction.

Assay [2] concerns the target T2, STA1 (STABILIZED1), yeast two-hybrid fusion (Arabidopsis) (UniProt Q9ZT71).
T2 sequence: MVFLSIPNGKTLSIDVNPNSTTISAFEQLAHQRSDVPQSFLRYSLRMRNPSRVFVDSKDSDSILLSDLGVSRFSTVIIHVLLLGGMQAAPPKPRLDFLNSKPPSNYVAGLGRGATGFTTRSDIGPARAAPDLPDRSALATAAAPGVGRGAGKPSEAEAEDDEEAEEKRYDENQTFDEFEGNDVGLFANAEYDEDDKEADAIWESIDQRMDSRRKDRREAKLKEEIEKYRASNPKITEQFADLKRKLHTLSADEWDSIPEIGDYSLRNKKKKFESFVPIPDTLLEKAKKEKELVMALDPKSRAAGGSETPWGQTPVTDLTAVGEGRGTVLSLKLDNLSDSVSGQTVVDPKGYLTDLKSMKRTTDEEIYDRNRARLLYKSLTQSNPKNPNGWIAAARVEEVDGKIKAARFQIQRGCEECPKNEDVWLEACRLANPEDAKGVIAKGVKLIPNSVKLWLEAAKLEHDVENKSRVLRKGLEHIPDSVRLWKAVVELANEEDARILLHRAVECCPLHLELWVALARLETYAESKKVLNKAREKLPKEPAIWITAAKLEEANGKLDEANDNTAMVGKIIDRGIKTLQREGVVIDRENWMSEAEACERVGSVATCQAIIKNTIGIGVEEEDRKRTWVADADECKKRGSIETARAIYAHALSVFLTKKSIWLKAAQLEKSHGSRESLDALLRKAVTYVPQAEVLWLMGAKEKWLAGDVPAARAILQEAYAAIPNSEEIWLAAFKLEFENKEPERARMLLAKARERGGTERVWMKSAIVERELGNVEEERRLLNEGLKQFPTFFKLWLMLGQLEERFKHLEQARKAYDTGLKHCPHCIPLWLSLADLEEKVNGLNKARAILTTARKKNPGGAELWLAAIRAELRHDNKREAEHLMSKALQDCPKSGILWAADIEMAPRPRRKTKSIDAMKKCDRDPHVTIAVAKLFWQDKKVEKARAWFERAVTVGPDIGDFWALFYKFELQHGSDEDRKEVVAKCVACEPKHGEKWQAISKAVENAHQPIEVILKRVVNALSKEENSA
The description is as above.

A further assay has as its target T3, nYFP-LSM1a (Arabidopsis) (UniProt Q945P8).
T3 sequence: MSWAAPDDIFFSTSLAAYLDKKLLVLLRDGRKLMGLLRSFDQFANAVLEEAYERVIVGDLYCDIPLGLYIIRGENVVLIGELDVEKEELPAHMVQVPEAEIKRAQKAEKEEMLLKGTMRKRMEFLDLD
Put plainly: split reporter; BiFC with YFP halves, transient expression in N. benthamiana leaf epidermal cells, confocal microscopy 3 d after agroinfiltration.

For a further assay, the target named is T4, cYFP-LSM1a (Arabidopsis) (UniProt Q945P8).
T4 sequence: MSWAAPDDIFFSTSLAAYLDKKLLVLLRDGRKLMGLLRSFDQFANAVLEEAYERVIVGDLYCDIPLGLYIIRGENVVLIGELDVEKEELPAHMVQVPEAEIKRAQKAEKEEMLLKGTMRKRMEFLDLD
The description is as above.

The target of assay [3] is T5, LSM8-mCherry (Arabidopsis) (UniProt Q8VYI0).
T5 sequence: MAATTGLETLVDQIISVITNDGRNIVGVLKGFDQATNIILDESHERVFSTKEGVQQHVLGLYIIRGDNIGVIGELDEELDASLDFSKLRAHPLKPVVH
Put plainly: FRET or BRET; FLIM-FRET in N. benthamiana leaf epidermis cells; GFP fusions as donors, mCherry fusions as acceptors. In general terms: In BRET a luciferase serves as donor, and the signal depends on an acceptor being close.

Assay [4] concerns the target T6, LSM8-GFP (N. benthamiana) (Arabidopsis) (UniProt Q8VYI0).
T6 sequence: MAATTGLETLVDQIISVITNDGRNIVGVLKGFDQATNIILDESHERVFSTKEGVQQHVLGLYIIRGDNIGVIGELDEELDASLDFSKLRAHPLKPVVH
Described as above.

We go through six molecules from article PMC9585968.

These are yes or no findings as the source states them, for the method shown. For some of these results: In cells and extracts the contact can be indirect. Some results given as binding are weak or reduced against the parent protein; the word gives no strength. Sequences can lack the tags named with a protein.

B1: MDF, yeast two-hybrid fusion (protein, UniProt Q9LFE0 1-820)
chain: MEVEKSKSRHEIREERADYEGSPVREHRDGRRKEKDHRSKDKEKDYDREKIRDKDHRRDKEKERDRKRSRDEDTEKEISRGRDKEREKDKSRDRVKEKDKEKERNRHKDRENERDNEKEKDKDRARVKERASKKSHEDDDETHKAAERYEHSDNRGLNEGGDNVDAASSGKEASALDLQNRILKMREERKKKAEDASDALSWVARSRKIEEKRNAEKQRAQQLSRIFEEQDNLNQGENEDGEDGEHLSGVKVLHGLEKVVEGGAVILTLKDQSVLTDGDVNNEIDMLENVEIGEQKRRNEAYEAAKKKKGIYDDKFNDDPGAEKKMLPQYDEAATDEGIFLDAKGRFTGEAEKKLEELRKRIQGQTTHTFEDLNSSAKVSSDYFSQEEMLKFKKPKKKKQLRKKDKLDLSMLEAEAVASGLGAEDLGSRKDGRRQAMKEEKERIEYEKRSNAYQEAIAKADEASRLLRREQVQPFKRDEDESMVLADDAEDLYKSLEKARRLALIKKEEAGSGPQAVAHLVASSTNQTTDDNTTTGDETQENTVVFTEMGDFVWGLQRENDVRKPESEDVFMEEDVAPKAPVEVKEEHPDGLTEVNDTDMDAAEDSSDTKEITPDENIHEVAVGKGLSGALKLLKDRGTLKEKVEWGGRNMDKKKSKLVGIVDDDGGKESKDKESKDRFKDIRIERTDEFGRTLTPKEAFRLLSHKFHGKGPGKMKEEKRMKQYQEELKLKQMKNSDTPSQSVQRMREAQAQLKTPYLVLSGHVKPGQTSDPQSGFATVEKDVPGSLTPMLGDRKVEHFLGIKRKSEPGNSDTPPKRPKP
On to B1, for which the values for the binding result in assay [1] and in assay [2] were “no binding” and “binds”, respectively.

B2: cYFP-MDF (protein, UniProt Q9LFE0 1-820)
chain: MEVEKSKSRHEIREERADYEGSPVREHRDGRRKEKDHRSKDKEKDYDREKIRDKDHRRDKEKERDRKRSRDEDTEKEISRGRDKEREKDKSRDRVKEKDKEKERNRHKDRENERDNEKEKDKDRARVKERASKKSHEDDDETHKAAERYEHSDNRGLNEGGDNVDAASSGKEASALDLQNRILKMREERKKKAEDASDALSWVARSRKIEEKRNAEKQRAQQLSRIFEEQDNLNQGENEDGEDGEHLSGVKVLHGLEKVVEGGAVILTLKDQSVLTDGDVNNEIDMLENVEIGEQKRRNEAYEAAKKKKGIYDDKFNDDPGAEKKMLPQYDEAATDEGIFLDAKGRFTGEAEKKLEELRKRIQGQTTHTFEDLNSSAKVSSDYFSQEEMLKFKKPKKKKQLRKKDKLDLSMLEAEAVASGLGAEDLGSRKDGRRQAMKEEKERIEYEKRSNAYQEAIAKADEASRLLRREQVQPFKRDEDESMVLADDAEDLYKSLEKARRLALIKKEEAGSGPQAVAHLVASSTNQTTDDNTTTGDETQENTVVFTEMGDFVWGLQRENDVRKPESEDVFMEEDVAPKAPVEVKEEHPDGLTEVNDTDMDAAEDSSDTKEITPDENIHEVAVGKGLSGALKLLKDRGTLKEKVEWGGRNMDKKKSKLVGIVDDDGGKESKDKESKDRFKDIRIERTDEFGRTLTPKEAFRLLSHKFHGKGPGKMKEEKRMKQYQEELKLKQMKNSDTPSQSVQRMREAQAQLKTPYLVLSGHVKPGQTSDPQSGFATVEKDVPGSLTPMLGDRKVEHFLGIKRKSEPGNSDTPPKRPKP
In the case of B2, in the assay with nYFP-LSM1a (Arabidopsis), the binding entry is given as “no binding”.

B3: nYFP-MDF (protein, UniProt Q9LFE0 1-820)
chain: MEVEKSKSRHEIREERADYEGSPVREHRDGRRKEKDHRSKDKEKDYDREKIRDKDHRRDKEKERDRKRSRDEDTEKEISRGRDKEREKDKSRDRVKEKDKEKERNRHKDRENERDNEKEKDKDRARVKERASKKSHEDDDETHKAAERYEHSDNRGLNEGGDNVDAASSGKEASALDLQNRILKMREERKKKAEDASDALSWVARSRKIEEKRNAEKQRAQQLSRIFEEQDNLNQGENEDGEDGEHLSGVKVLHGLEKVVEGGAVILTLKDQSVLTDGDVNNEIDMLENVEIGEQKRRNEAYEAAKKKKGIYDDKFNDDPGAEKKMLPQYDEAATDEGIFLDAKGRFTGEAEKKLEELRKRIQGQTTHTFEDLNSSAKVSSDYFSQEEMLKFKKPKKKKQLRKKDKLDLSMLEAEAVASGLGAEDLGSRKDGRRQAMKEEKERIEYEKRSNAYQEAIAKADEASRLLRREQVQPFKRDEDESMVLADDAEDLYKSLEKARRLALIKKEEAGSGPQAVAHLVASSTNQTTDDNTTTGDETQENTVVFTEMGDFVWGLQRENDVRKPESEDVFMEEDVAPKAPVEVKEEHPDGLTEVNDTDMDAAEDSSDTKEITPDENIHEVAVGKGLSGALKLLKDRGTLKEKVEWGGRNMDKKKSKLVGIVDDDGGKESKDKESKDRFKDIRIERTDEFGRTLTPKEAFRLLSHKFHGKGPGKMKEEKRMKQYQEELKLKQMKNSDTPSQSVQRMREAQAQLKTPYLVLSGHVKPGQTSDPQSGFATVEKDVPGSLTPMLGDRKVEHFLGIKRKSEPGNSDTPPKRPKP
For B3, in the assay with cYFP-LSM1a (Arabidopsis), the binding entry is on record as “no binding”.

B4: MDF-GFP (protein, UniProt Q9LFE0 1-820)
chain: MEVEKSKSRHEIREERADYEGSPVREHRDGRRKEKDHRSKDKEKDYDREKIRDKDHRRDKEKERDRKRSRDEDTEKEISRGRDKEREKDKSRDRVKEKDKEKERNRHKDRENERDNEKEKDKDRARVKERASKKSHEDDDETHKAAERYEHSDNRGLNEGGDNVDAASSGKEASALDLQNRILKMREERKKKAEDASDALSWVARSRKIEEKRNAEKQRAQQLSRIFEEQDNLNQGENEDGEDGEHLSGVKVLHGLEKVVEGGAVILTLKDQSVLTDGDVNNEIDMLENVEIGEQKRRNEAYEAAKKKKGIYDDKFNDDPGAEKKMLPQYDEAATDEGIFLDAKGRFTGEAEKKLEELRKRIQGQTTHTFEDLNSSAKVSSDYFSQEEMLKFKKPKKKKQLRKKDKLDLSMLEAEAVASGLGAEDLGSRKDGRRQAMKEEKERIEYEKRSNAYQEAIAKADEASRLLRREQVQPFKRDEDESMVLADDAEDLYKSLEKARRLALIKKEEAGSGPQAVAHLVASSTNQTTDDNTTTGDETQENTVVFTEMGDFVWGLQRENDVRKPESEDVFMEEDVAPKAPVEVKEEHPDGLTEVNDTDMDAAEDSSDTKEITPDENIHEVAVGKGLSGALKLLKDRGTLKEKVEWGGRNMDKKKSKLVGIVDDDGGKESKDKESKDRFKDIRIERTDEFGRTLTPKEAFRLLSHKFHGKGPGKMKEEKRMKQYQEELKLKQMKNSDTPSQSVQRMREAQAQLKTPYLVLSGHVKPGQTSDPQSGFATVEKDVPGSLTPMLGDRKVEHFLGIKRKSEPGNSDTPPKRPKP
In the case of B4, the binding entry in assay [3] is listed as “no binding”.

B5: LSM2-mCherry (protein, UniProt Q1H595 1-93)
chain: MLFFSYFKDLVGQEVTVELKNDLAIRGTLHSVDQYLNIKLENTRVVDQDKYPHMLSVRNCFIRGSVVRYVQLPKDGVDVDLLHDAARREARGG
For the molecule B5, the binding entry in assay [4] was “binds”.

B6: LSM2, yeast two-hybrid fusion (protein, UniProt Q1H595 1-93)
chain: MLFFSYFKDLVGQEVTVELKNDLAIRGTLHSVDQYLNIKLENTRVVDQDKYPHMLSVRNCFIRGSVVRYVQLPKDGVDVDLLHDAARREARGG
Consider B6, for which the binding result in assay [1] is “binds”.
